Binding data for three molecules are collected here from PMC9307175.

These are yes or no findings as the source states them, for the method shown. For some of these results: In cells and extracts the contact can be indirect. Some results given as binding are weak or reduced against the parent protein; the word gives no strength. For some of these results: Tags and fused reporters may be left off the sequences shown.

The target in test [1] is T1, chitin-binding domain (CBD)-tagged STAT2 (human (HeLa cDNA library)), P52630. Nature of the test: co-IP. As to conditions: remark: other sources report otherwise.
For test [2], the target named is T1, chitin-binding domain (CBD)-tagged …. As to the kind of experiment: pull-down; both purified. As to conditions: remark: other sources report otherwise.
Test [3] has as its target S-peptide-tagged vIRF-1 (vIRF-1-S), expressed in transfected 293T cells (human herpesvirus 8 (HHV-8)) (UniProt F5HF68). As to the kind of experiment: co-IP.
The target of test [4] is STAT1-Flag/STAT2-CBD complexes isolated by Flag IP and chitin AP from IFNβ-treated transfected 293T cells (human | human (HeLa cDNA library)) (UniProt P42224). Nature of the test: co-IP.

B1: IRF9, endogenous in 293T cells, Q00978 1-393 (protein)
chain: MASGRARCTRKLRNWVVEQVESGQFPGVCWDDTAKTMFRIPWKHAGKQDFREDQDAAFFKAWAIFKGKYKEGDTGGPAVWKTRLRCALNKSSEFKEVPERGRMDVAEPYKVYQLLPPGIVSGQPGTQKVPSKRQHSSVSSERKEEEDAMQNCTLSPSVLQDSLNNEEEGASGGAVHSDIGSSSSSSSPEPQEVTDTTEAPFQGDQRSLEFLLPPEPDYSLLLTFIYNGRVVGEAQVQSLDCRLVAEPSGSESSMEQVLFPKPGPLEPTQRLLSQLERGILVASNPRGLFVQRLCPIPISWNAPQAPPGPGPHLLPSNECVELFRTAYFCRDLVRYFQGLGPPPKFQVTLNFWEESHGSSHTPQNLITVKMEQAFARYLLEQTPEQQAAILSLV
Consider B1, for which the binding result in test [1] and in test [2] was “binds” throughout.

B2: Flag-tagged IRF9 (pCEBZ-IRF9-SF) (protein, UniProt Q00978 1-393)
chain: MASGRARCTRKLRNWVVEQVESGQFPGVCWDDTAKTMFRIPWKHAGKQDFREDQDAAFFKAWAIFKGKYKEGDTGGPAVWKTRLRCALNKSSEFKEVPERGRMDVAEPYKVYQLLPPGIVSGQPGTQKVPSKRQHSSVSSERKEEEDAMQNCTLSPSVLQDSLNNEEEGASGGAVHSDIGSSSSSSSPEPQEVTDTTEAPFQGDQRSLEFLLPPEPDYSLLLTFIYNGRVVGEAQVQSLDCRLVAEPSGSESSMEQVLFPKPGPLEPTQRLLSQLERGILVASNPRGLFVQRLCPIPISWNAPQAPPGPGPHLLPSNECVELFRTAYFCRDLVRYFQGLGPPPKFQVTLNFWEESHGSSHTPQNLITVKMEQAFARYLLEQTPEQQAAILSLV
B2: the binding entry in test [3] is “binds”.

B3: IRF9, endogenous in 293T cells (protein, UniProt Q00978 1-393)
chain: MASGRARCTRKLRNWVVEQVESGQFPGVCWDDTAKTMFRIPWKHAGKQDFREDQDAAFFKAWAIFKGKYKEGDTGGPAVWKTRLRCALNKSSEFKEVPERGRMDVAEPYKVYQLLPPGIVSGQPGTQKVPSKRQHSSVSSERKEEEDAMQNCTLSPSVLQDSLNNEEEGASGGAVHSDIGSSSSSSSPEPQEVTDTTEAPFQGDQRSLEFLLPPEPDYSLLLTFIYNGRVVGEAQVQSLDCRLVAEPSGSESSMEQVLFPKPGPLEPTQRLLSQLERGILVASNPRGLFVQRLCPIPISWNAPQAPPGPGPHLLPSNECVELFRTAYFCRDLVRYFQGLGPPPKFQVTLNFWEESHGSSHTPQNLITVKMEQAFARYLLEQTPEQQAAILSLV
Consider B3, for which the binding result in test [4] was “binds”.
